The record followed here is the supplement of paper PMC9446081.

The structures appear in SMILES notation. The campaign covered roughly 39,000 compounds. About 220 (0.56%) showed activity. The list shows a part of the results.
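Further: static incubation at 37 °C against the wild-type strain, values averaged over two biological replicates.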

This test has as its system Escherichia coli K-12 BW25113. In words: relative growth (OD600 normalised to plate interquartile mean) (fraction); higher = less growth inhibition, active = 0.2 or less. The conditions noted are these: 50 µM; LB; incubation time: overnight (16-24 h).
As to `O=C(O)/C=C/C(=O)Nc1nccs1`, the relative growth is inactive: 0.984.

In the case of `COCC(=O)N1C[C@H](C)[C@@H](OC)CN(C)C(=O)c2cc(NC(=O)c3ccc(OC)cc3)ccc2OC[C@H]1C`, the relative growth was inactive: 0.969.

As to `O=C([O-])C1=C(CSc2nnnn2CS(=O)(=O)[O-])CSC2C(NC(=O)C(O)c3ccccc3)C(=O)N12.[Na+].[Na+]` (stereo not drawn), the relative growth is active: 0.044.

For the molecule `COc1ccc(S(=O)(=O)N(C)C[C@H]2Oc3ccc(NS(=O)(=O)c4ccc(F)cc4)cc3C(=O)N([C@@H](C)CO)C[C@H]2C)cc1`, the relative growth was inactive: 1.01.

As to `COCC#Cc1ccc([C@@H]2[C@@H](CO)N3C(=O)CN(C(=O)C4CCOCC4)C[C@H]23)cc1`, the relative growth was inactive: 0.985.

`C[C@H]1CCCN(S(=O)(=O)CCN)C1`: the relative growth was inactive: 0.998.

In the case of `Nc1cc(=O)nc(N)[nH]1`, the relative growth was inactive: 1.04.

Regarding `O=c1c2c(c1=O)N(CCP(=O)(O)O)CCCN2`, the relative growth is inactive: 0.989.

`CCC1C=C2C(=O)OC(=O)C2CC2=C(C(=O)OC2=O)C(OC(C)=O)C1CC` (stereo not drawn): the relative growth was inactive: 1.06.

For the molecule `O=C(CCCCCCC(=O)Nc1ccc([C@H]2C[C@H](c3ccccc3)O[C@H](c3ccc(Oc4ccccc4)cc3)O2)cc1)NO`, the relative growth is inactive: 1.01.

As to `NCCCC(N)CC(=O)NC1CNC(=O)C(C2CC(O)NC(N)=N2)NC(=O)C(=CNC(N)=O)NC(=O)C(CO)NC(=O)C(CO)NC1=O.O=S(=O)(O)O` (stereo not drawn), the relative growth is inactive: 0.993.

On to `COc1ccc(S(=O)(=O)Nc2cccc3c2O[C@H](CN(C)S(=O)(=O)c2ccccc2)[C@@H](C)CN([C@@H](C)CO)C3=O)cc1`, for which the relative growth is inactive: 0.991.

As to `C[C@H]1CN([C@@H](C)CO)C(=O)c2cc(C#Cc3ccc(F)cc3)cnc2O[C@@H]1CN(C)Cc1ccccn1`, the relative growth was inactive: 0.971.

As for `C[C@@H](O)C#Cc1ccc2c(c1)O[C@@H](CN(C)C(=O)C1CCCCC1)[C@@H](C)CN([C@@H](C)CO)S2(=O)=O`, the relative growth is inactive: 0.995.

Regarding `Cc1noc(C)c1S(=O)(=O)Nc1ccc2c(c1)C(=O)N([C@@H](C)CO)C[C@H](C)[C@H](CN(C)Cc1ccccc1)O2`, the relative growth was inactive: 1.01.

Take `COc1cccc(S(=O)(=O)N2C[C@H](O)COC[C@@H]3O[C@H](CC(=O)NCCCN4CCOCC4)CC[C@H]32)c1`: the relative growth was inactive: 0.916.

Take `C[C@@H]1CCCCO[C@@H](CN(C)Cc2ccc(Cl)c(Cl)c2)[C@@H](C)CN([C@H](C)CO)C(=O)c2cc(NC(=O)CCC(F)(F)F)ccc2O1`: the relative growth was inactive: 0.896.

Regarding `Cc1ccc(C(=CCN2CCCC2)c2ccccn2)cc1.Cl`, the relative growth was inactive: 0.878.

As for `CC(=O)N1CCN(C(=O)C(=O)NC[C@H](c2ccc(N(C)C)cc2)N2CCOCC2)CC1`, the relative growth was inactive: 0.989.

With `CC(=O)N(C)C[C@H]1Oc2ncc(C#CC(C)(C)O)cc2C(=O)N([C@H](C)CO)C[C@H]1C`, the relative growth was inactive: 1.

As for `C[C@H]1CN([C@@H](C)CO)C(=O)c2cc(-c3cccnc3)cnc2O[C@H]1CN(C)Cc1ccc(Oc2ccccc2)cc1`, the relative growth is inactive: 1.03.

As to `C[C@@H]1CN([C@H](C)CO)S(=O)(=O)c2ccc(-c3ccccc3F)cc2O[C@@H]1CN(C)S(C)(=O)=O`, the relative growth was inactive: 1.03.

As for `O=C(C[C@H]1C=C[C@@H](NC(=O)c2ccc(F)cc2)[C@H](CO)O1)NCc1ccncn1`, the relative growth was inactive: 0.996.

With `O=C1O[C@@H](c2ccccc2)[C@@H](c2ccccc2)N2[C@@H](c3ccc(OCCO)cc3)[C@]3(C(=O)Nc4ccc(C#CC5(O)CCCCCC5)cc43)[C@@H](C(=O)N3CCCCCCC3)[C@H]12`, the relative growth was inactive: 1.05.

On to `CC(C)NC(=O)Nc1cccc2c1O[C@H](CN(C)C(=O)NC1CCCCC1)[C@@H](C)CN([C@@H](C)CO)C2=O`, for which the relative growth is inactive: 0.969.

In the case of `CC(C)NC(=O)Nc1ccc2c(c1)CC(=O)N([C@@H](C)CO)C[C@@H](C)[C@H](CN(C)S(=O)(=O)c1ccccc1)O2`, the relative growth is inactive: 1.01.

As to `O=C(C[C@@H]1CC[C@H]2[C@@H](COC[C@H](O)CN2S(=O)(=O)c2cccc(F)c2)O1)NCc1ccncn1`, the relative growth was inactive: 1.03.

For `C[C@@H]1CCCCO[C@H](CN(C)Cc2ccc(Cl)c(Cl)c2)[C@@H](C)CN([C@H](C)CO)C(=O)c2cc(NC(=O)c3ccncc3)ccc2O1`, the relative growth was inactive: 1.03.

For the molecule `C[C@@H]1CCCCO[C@@H](CN(C)C(=O)Nc2cccc3ccccc23)[C@@H](C)CN([C@H](C)CO)C(=O)c2cc(NS(=O)(=O)c3ccccc3)ccc2O1`, the relative growth is inactive: 1.01.

On to `CNC[C@H]1OCCCC[C@H](C)Oc2ccc(NS(=O)(=O)c3c(C)noc3C)cc2C(=O)N([C@@H](C)CO)C[C@@H]1C`, for which the relative growth was inactive: 0.989.

Regarding `C[C@H]1CCCCO[C@H](CN(C)C(=O)Nc2cccc3ccccc23)[C@@H](C)CN([C@@H](C)CO)C(=O)c2cc(NS(=O)(=O)c3ccc(Cl)cc3)ccc2O1`, the relative growth was inactive: 1.03.

As for `CC1(C)CN(C(=O)Cn2nccn2)C[C@]1(C)O`, the relative growth is inactive: 0.983.

Regarding `C[C@@H]1CCCCO[C@H](CN(C)C(=O)C2CCCCC2)[C@@H](C)CN([C@H](C)CO)C(=O)c2cc(NC(=O)Nc3cccc4ccccc34)ccc2O1`, the relative growth was inactive: 0.924.

Regarding `C=CC[C@H](CC(=O)NCCO)C(=O)N[C@H](COC(=O)[C@@H](CC=C)CC(=O)OC(C)(C)C)Cc1c[nH]c2ccccc12`, the relative growth was inactive: 0.998.

For `C[C@H]1CN([C@@H](C)CO)C(=O)c2c(c3ccccc3n2C)-c2ccccc2CO[C@@H]1CN(C)C(=O)Nc1cccc(F)c1`, the relative growth is inactive: 1.01.

For `Cc1noc(C)c1S(=O)(=O)N(C)C[C@H]1Oc2ccc(NC(=O)Nc3ccccc3)cc2CC(=O)N([C@H](C)CO)C[C@H]1C`, the relative growth is inactive: 1.03.

For `C[C@H]1CN([C@@H](C)CO)C(=O)Cc2cc(NC(=O)c3ccncc3)ccc2O[C@@H]1CN(C)S(C)(=O)=O`, the relative growth is inactive: 1.01.

Regarding `C[C@H]1CN([C@@H](C)CO)C(=O)c2cccc(NC(=O)c3cnccn3)c2O[C@H]1CN(C)C(=O)NC1CCCCC1`, the relative growth was inactive: 1.02.

Take `COc1ccc(S(=O)(=O)N(C)C[C@@H]2Oc3ccc(NS(=O)(=O)c4cn(C)cn4)cc3C(=O)N([C@@H](C)CO)C[C@H]2C)cc1`: the relative growth was inactive: 0.989.

Turning to `C[C@H](CO)N1C[C@H](C)[C@H](CN(C)Cc2ccccc2)OCCCC[C@H](C)Oc2ccc(NC(=O)c3ccccc3)cc2C1=O`, the relative growth was inactive: 1.01.

As for `C[C@H](CO)N1C[C@H](C)[C@H](CN(C)Cc2ccncc2)Oc2c(NS(=O)(=O)c3cccs3)cccc2C1=O`, the relative growth is inactive: 0.945.

As for `O=C(NC1CCCCC1)NC1CCCCC1`, the relative growth is inactive: 1.01.

With `CC12CCC3C(=CCc4cc(O)ccc43)C1CCC2=O` (stereo not drawn), the relative growth was inactive: 1.03.

Consider `C[C@@H]1CN([C@@H](C)CO)C(=O)c2cc(NC(=O)CCC(F)(F)F)ccc2O[C@H]1CN(C)S(=O)(=O)c1cn(C)cn1`, for which the relative growth is inactive: 0.996.

As to `CCO[C@@H]1OC(C(=O)N2CCN(Cc3ccccc3)CC2)=C[C@H](c2cn(C(C)=O)c3ccccc23)[C@H]1CCCOC(=O)NCCCCCC(=O)NO`, the relative growth was inactive: 1.01.

For `CC(=O)N[C@H](C)c1cn(C)nc1C`, the relative growth was inactive: 1.03.

On to `C[C@H]1CCCCO[C@H](CN(C)S(=O)(=O)c2cn(C)cn2)[C@@H](C)CN([C@@H](C)CO)C(=O)c2cc(NS(=O)(=O)c3cccs3)ccc2O1`, for which the relative growth was inactive: 0.986.

Regarding `Cn1cnc(S(=O)(=O)N2C[C@@H](O)COC[C@H]3O[C@@H](CC(=O)NC4CCC4)CC[C@@H]32)c1`, the relative growth is inactive: 1.02.

For `COCC(=O)Nc1ccc2c(c1)OC[C@@H](C)N(Cc1cccc(F)c1)C[C@@H](C)[C@H](OC)CN(C)C2=O`, the relative growth was inactive: 0.957.

For `COC(=O)c1c2oc(c1C(=O)OC)C(=O)N[C@H](Cc1ccccc1)Cn1cc(nn1)[C@@H](Cc1ccccc1)NC(=O)N[C@@H](CO)CC2`, the relative growth is inactive: 0.951.

In the case of `C=C1CCC2C(CC2(C)C)C(=O)CCC1O` (stereo not drawn), the relative growth was inactive: 0.974.

Take `C[C@@H]1CN([C@H](C)CO)C(=O)c2cccc(NC(=O)C3CCOCC3)c2O[C@@H]1CN(C)Cc1ccc(-c2ccccc2)cc1`: the relative growth was inactive: 1.

Consider `C[C@@H]1CCCCO[C@@H](CN(C)Cc2ccncc2)[C@@H](C)CN([C@H](C)CO)C(=O)c2cc(NC(=O)CCC(F)(F)F)ccc2O1`, for which the relative growth is inactive: 1.01.

With `C[C@@H]1CN([C@@H](C)CO)C(=O)c2cccc(NS(=O)(=O)c3ccc(F)cc3)c2O[C@H]1CN(C)Cc1ccncc1`, the relative growth was inactive: 1.

As for `CN1C(=O)c2cc(NC(=O)c3cscn3)ccc2OC[C@@H]2O[C@@H](CC(=O)N3CCOCC3)CC[C@H]21`, the relative growth is inactive: 1.04.

With `O=C(O)CCCNc1n[nH]c(=O)[nH]c1=O`, the relative growth was inactive: 0.997.

`Cc1ccc(S(=O)(=O)N(C)C[C@H]2OCCCC[C@H](C)Oc3ccc(NC(=O)c4ccccc4)cc3C(=O)N([C@H](C)CO)C[C@@H]2C)cc1`: the relative growth is inactive: 1.03.

Consider `C[C@@H]1CCCCO[C@@H](CN(C)C(=O)CCCN(C)C)[C@@H](C)CN([C@H](C)CO)C(=O)c2cc(NC(=O)Nc3ccc(C(F)(F)F)cc3)ccc2O1`, for which the relative growth was inactive: 1.04.

Take `COc1ccc(C(C)C(=O)c2ccc(O)cc2O)cc1` (stereo not drawn): the relative growth was inactive: 0.856.

Consider `C[C@H]1CN([C@@H](C)CO)C(=O)Cc2cc(NC(=O)Nc3ccccc3)ccc2O[C@@H]1CN(C)S(=O)(=O)c1cn(C)cn1`, for which the relative growth was inactive: 0.946.

As to `C[C@H](CO)N1C[C@H](C)[C@@H](CN(C)S(=O)(=O)c2cccs2)Oc2ccc(NS(=O)(=O)c3ccccc3)cc2CC1=O`, the relative growth was inactive: 0.976.

On to `C[C@H](CO)N1C[C@H](C)[C@@H](CN(C)S(C)(=O)=O)Oc2ccc(N(C)C)cc2C1=O`, for which the relative growth is inactive: 0.9.

With `COc1ccc(CNC(=O)N(C)C[C@@H]2OCc3ccccc3-c3c(n(C)c4ccccc34)C(=O)N([C@@H](C)CO)C[C@@H]2C)cc1`, the relative growth was inactive: 0.989.
